According to the supplement of paper PMC11417369:
± gives the standard deviation of the averaged measurements. Some of the results follow.

The sequences below were run on PfAP2-LT AP2 domain (GST-tagged) (assay: gcPBM binding intensity (ln(normalized median fluorescence intensity)); higher = stronger DNA binding).
Procedure, shortened: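 Alexa488 anti-GST antibody, scanned at 488 nm, detected GST-tagged P. falciparum DNA-binding domains that had been expressed in E. coli and incubated for 1 h on an Agilent 4 × 180k array. The array carried primer-extended double-stranded 36-bp intergenic genomic probes and negative controls. Binding intensity is the highest Masliner-normalised natural-log median intensity across replicate spots of either orientation of each probe.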

Row | Sequence | gcPBM binding intensity (ln)
1 | TATGTATATAAATTAACACACATATGTGGTTAATAG [CACACA_site3143] | 8.8 ± 0.37
2 | ATAATATATACTAAAAGTACATATTATAATAAATTA [XGTACX_site6749] | 8.59 ± 0.42
3 | GAAATAATTGTTAAAGGTACACAATGCATATACAAT [XGTACX_site238] | 9.02 ± 0.4
4 | AGGAAAATAGAAAAAGCACACATATATTTTGGAATG [CACACA_site8080] | 8.98 ± 0.54
5 | ACTTCATTTTTTTTATGTACACAGAAGATTTACAAA [XGTACX_site4021] | 8.5 ± 0.47
6 | AAAATAATAATTAATACATGCATTAATTCTTTTTTT [TGCATGCA_site741] | 8.48 ± 0.51
7 | ACATATGTATGAATATCAAAAAATCCCTATTTAATG [GTGCAC_negctrl_site27] | 8.78 ± 0.47
8 | TATATACATATATATACACACATATATATATTTTAT [CACACA_site3788] | 8.96 ± 0.47
9 | CATATATTATTTAATAGTACATATAAAAGAAAAAAA [XGTACX_site4643] | 8.6 ± 0.56
10 | TATATAAATAAATGTGTACACACATTAAAATCAAAC [CACACA_site8733] | 9.16 ± 0.43
11 | ATTTATTTATTTTTTTGTACGAATGTTGCACATATA [XGTACX_site4101] | 8.89 ± 0.47
12 | AAATCAACTTATTTTTGTACATATATTTATTATATA [XGTACX_site2925] | 8.9 ± 0.4
13 | ATAGAAACATATTGACGTACAGTATAATAATACAGT [XGTACX_site197] | 9.12 ± 0.38
14 | ATATATTATAGAGGTGTGCACTACATACATTATAAT [GTGCAC_site9991] | 9.23 ± 0.48
15 | TCTTTATGTAAGGTCTTCCACAAAAAAATTAAAAAA [TGCATGCA_negctrl_site229] | 8.13 ± 0.4
16 | GAAAAATTAATAAATAAACACACATATATATATATA [CACACA_site8835] | 9.43 ± 0.37
17 | ATTTTCACCTGAACGGTGCATATTTAATTTTAGGTT | 8.99 ± 0.47
18 | ATATATGTACAAATTGTGCGCAATAATTTTGTCTTT | 9.13 ± 0.35
19 | ATACATATATATGTGTGTACATATGTGTATACATTT [XGTACX_site6544] | 9.26 ± 0.35
20 | ATATGTATTAAGTGTACACATATAATGGGTTTGTTA [CACACA_site5682] | 8.95 ± 0.38
21 | TTTTATAAATCTAAACGTATCTAAATGAATAATTAA [GTGCAC_negctrl_site44] | 8.14 ± 0.43
22 | GAATGAAAATAAAATTGTACACATATCTATATCTAT [XGTACX_site2642] | 8.76 ± 0.42

Row | Sequence | gcPBM binding intensity (ln)
23 | TATATTATATGTATTGCACACCTTCAACAACTACTT [CACACA_site8121] | 9.2 ± 0.49
24 | AAAAAAAAAAAAAGTTGTACATTATTTTCCTAATTC [XGTACX_site7998] | 8.46 ± 0.38
25 | TTTAATTAGGATAATTGTACTGAACTAAGTATATTT [XGTACX_site1871] | 8.46 ± 0.45
26 | TTTTTTATTTTGTGCACACACATAAAAATATATATA [CACACA_site761] | 9.04 ± 0.42
27 | TTTTTTTTTTTTTAAACATGCATAATAAATATAATA [TGCATGCA_site265] | 8.07 ± 0.41
28 | TATTTATTTATGGACACACATACAAATCTTCCAGAC [CACACA_site942] | 8.93 ± 0.41
29 | TAATCATAACTTGATACGCACACGTTATATAAATAA [CACACA_site1579] | 8.78 ± 0.33
30 | TTGTTTTCTTATTATTACTACAATACTTAAGTCAGA [TGCATGCA_negctrl_site184] | 8.58 ± 0.42
31 | TTTTGTTGGATACAAAAATTACAAATTATTTAAAAA [TGCATGCA_negctrl_site532] | 8.07 ± 0.4
32 | TTTTTTATTTTAAAAACATGCATAAAATATAATAGT [TGCATGCA_site762] | 8.32 ± 0.35
33 | TATATATTTAATTTCACACATATATATAATTATTAT [CACACA_site4936] | 8.76 ± 0.38
34 | ATATTATATATAAAATGTACATTTAAAAATATTATA [XGTACX_site889] | 8.66 ± 0.42
35 | ATACACACTTAAAAAAGTACTTAACTACATGAATTG [XGTACX_site1203] | 8.82 ± 0.41
36 | TATCATAAAAAATATACACACAAAGGATATTTATAT [CACACA_site6841] | 8.99 ± 0.29
37 | TATGAACACCAACACACACACAAAAAAAAAAAAAAA [CACACA_site2013] | 9.49 ± 0.48
38 | GAATACATAATAACATGTACACACATTCTTCTATAA [XGTACX_site8725] | 9.01 ± 0.36
39 | TATATATATAGAAATGCATGTTAATAAAAGTTATAA [TGCATGCA_site947] | 8.9 ± 0.36
40 | AAAAATAATCATTAGGTGCAAAAAATATATATATAT [GTGCAC_site9631] | 9.27 ± 0.31
41 | TACGTAAAATAATTGAGTACATAATTATATATATAT [XGTACX_site5361] | 8.74 ± 0.46
42 | AGAAAAATTATTTTGCGTACATATTTACAATAAAAA [XGTACX_site2144] | 8.43 ± 0.57
43 | AACAAATATATATGTAGTACATGTTGTAGATAATTT [XGTACX_site24] | 9.22 ± 0.45
44 | TTTTTTTTTTTAAATTCACACAATATATAAATATTG [CACACA_site5201] | 8.44 ± 0.49
